Measurements reported in the supplement of paper PMC7266297.
Where a name gives a salt, the structure may show the parent alone. The list shows a part of the results. Single values are uncertain, as repeats are few or missing.

Columns and labels:
[1] = tested on: KB-3-1; assay: growth inhibition relative to DMSO control (SRB); cervical cancer cells: KB-3-1 is the parent and KB-V1 overexpresses MDR1; SRB is the sulforhodamine B stain; higher = more growth inhibition; conditions: 1 µM; 72 h
[2] = tested on: KB-V1; assay: as above; conditions: 1 µM; 72 h
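Also: Read-out is SRB optical density at 490 nm, with the control being wells given 0.5% DMSO vehicle, and compound added one day after cells were plated.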

Row | SMILES | growth inhibition [1] [%] | growth inhibition [2] [%]
1 | COc1cc(OC)c(OC)cc1C=O [Asaraldehyde] | 31.3 | 4.26
2 | Cc1cccc(Cc2c[nH]cn2)c1C [Detomidine HCl] | 29.2 | 22.1
3 | CNCC(=O)c1ccc(O)c(O)c1 [Adrenalone HCl] | 2.81 | 12.6
4 | COc1ccc(C(CN(C)C)C2(O)CCCCC2)cc1 (stereo not given) [Venlafaxine] | 14.1 | 38.1
5 | Cc1sc2c(c1C)C(c1ccc(Cl)cc1)=N[C@@H](CC(=O)OC(C)(C)C)c1nnc(C)n1-2 | 71.5 | 67
6 | CN1[C@@H]2CC[C@H]1C[C@@H](OC(=O)C(CO)c1ccccc1)C2 (stereo not given in full) [Atropine] | < 0 | 17.8
7 | Cc1sc2c(c1C)C(c1ccc(Cl)cc1)=N[C@@H](CC(=O)Nc1ccc(O)cc1)c1nnc(C)n1-2 | 55 | 40.9
8 | CCCN1CCO[C@@H]2c3cc(O)ccc3OC[C@H]21 | < 0 | 29
9 | O=C1CCC[C@@H]2[C@H]3CCCN4CCC[C@@H](CN12)[C@@H]34 [(+)-Matrine] | < 0 | 14
10 | CN1CCN(c2nc3ccccc3nc2Cl)CC1 | < 0 | 11.9
11 | Cc1cccc(C)c1NC1=NCCCS1 [Xylazine HCl] | 29.6 | 6.38
12 | CNCC(O)c1ccc(O)cc1 (stereo not given) [Synephrine HCl] | 20.7 | 27.8
13 | CC(NC(C)(C)C)C(=O)c1cccc(Cl)c1 (stereo not given) [Amfebutamone HCl] | 27.8 | 17.1
14 | C=CC[C@]1(O)CC[C@H]2[C@@H]3CCC4=CC(=O)CCC4=C3C=C[C@@]21C [Altrenogest] | 5.06 | 0.327
15 | C[C@]12CCC(=O)C(O)=C1CC[C@@H]1[C@@H]2CC[C@]2(C)C(=O)CC[C@@H]12 [Formestane] | < 0 | 21.5
16 | CC(O)(CS(=O)(=O)c1ccc(F)cc1)C(=O)Nc1ccc(C#N)c(C(F)(F)F)c1 (stereo not given) [Bicalutamide] | 34.9 | 45.8
17 | C[C@@]12N[C@@H](Cc3ccccc31)c1ccccc12 [(-)-MK 801 Maleate] | 3.97 | 5.67
18 | O=C(NCC1CCOCC1)c1cnc(Nc2ccc(Cl)cc2Cl)nc1C(F)(F)F | 8.73 | 36.3

Row | SMILES | growth inhibition [1] [%] | growth inhibition [2] [%]
19 | COc1cc(-n2c(=S)[nH]c3ccccc3c2=O)c(Cl)cc1Cl [Mdivi-1] | < 0 | < 0
20 | CCOC(=O)c1cncn1[C@H](C)c1ccccc1 [Etomidate] | 11.3 | 39.6
21 | COc1ccc(C(=O)N2CCCC2=O)cc1 [Aniracetam] | 4.32 | 38
22 | CN(C)C(=O)Oc1ccc[n+](C)c1 [Pyridostigmine Bromide] | 26.2 | 11.6
23 | C[C@]12N[C@H](Cc3ccccc31)c1ccccc12 [MK-801 (Dizocilpine)] | 15.7 | 15.7
24 | CCOc1ccccc1-n1c(C(C)N2CCN(C(=O)COc3ccc(Cl)cc3)CC2)nc2ccccc2c1=O (stereo not given) [Erastin] | < 0 | < 0
25 | C[C@@H]1O[C@@H](O[C@H]2C[C@@H](O)[C@]3(CO)[C@H]4[C@H](O)C[C@]5(C)[C@@H](C6=CC(=O)OC6)CC[C@]5(O)[C@@H]4CC[C@]3(O)C2)[C@H](O)[C@H](O)[C@H]1O [Ouabain] | 41 | 78.8
26 | C[C@]12CC[C@H]3[C@@H](CC[C@@]45O[C@@H]4C(O)=C(C#N)C[C@]35C)[C@@H]1CC[C@@H]2O [Trilostane] | 13 | 36.5
27 | Cc1cc(SCc2sc(-c3ccc(C(F)(F)F)c(F)c3)nc2C)ccc1OCC(=O)O | 47.2 | 1.85
28 | CCC1(c2ccc(N)cc2)CCC(=O)NC1=O (stereo not given) [Aminoglutethimide] | 28.9 | 10.4
29 | [O-][n+]1ccccc1[S-].[O-][n+]1ccccc1[S-].[Zn+2] [Zinc Pyrithione] | 88.5 | 85.9
30 | COC[C@H]1OC(=O)c2coc3c2[C@@]1(C)C1=C(C3=O)[C@@H]2CCC(=O)[C@@]2(C)C[C@H]1OC(C)=O [Wortmannin] | < 0 | 3.12
31 | C[C@]12CC[C@H](O)C[C@@H]1CC[C@@H]1[C@@H]2CC[C@]2(C)C(=O)CC[C@@H]12 [Epiandrosterone] | 26.3 | 20
32 | Cc1cccc(C)c1NC(=O)CN1CCCC1=O [Nefiracetam] | 53.2 | 21.6
33 | Cc1ccccc1-n1c(Cn2ncc3c(N)ncnc32)nc2cccc(C)c2c1=O | < 0 | 36.4
34 | C[N+]1(C)[C@@H]2C[C@@H](OC(=O)[C@H](CO)c3ccccc3)C[C@H]1[C@@H]1O[C@@H]12 [Methscopolamine] | 41.9 | 22.5
35 | Cc1ccc(-n2nccn2)c(C(=O)N2CCN(c3nc4cc(Cl)ccc4o3)CC[C@H]2C)c1 [Suvorexant (MK-4305)] | 0.442 | < 0
